Test results: the supplement of paper PMC4967469
A lower IC50 marks a more sensitive line; a fit beyond the top or the lowest dose is shown as a bound at that dose. AUC is the area under the same curve over the 256-fold range up to the top dose, as a fraction; the more sensitive the line, the further below 1. For some assays here: A top dose marked as inferred was derived from the fitted curves, not read from the paper. For some assays here: An entry number marks a drug with two screens in the source, which often give different values.

Columns and labels:
Assay in all cases: Viability of human cancer cell lines after 72 h of drug (GDSC screen)
[1] = compound: O=C(/C=C/c1ccc(CN(CCO)CCc2c[nH]c3ccccc23)cc1)NO [LAQ824]; settings: top dose 1.024 µM; top dose inferred
Method: (§1)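 Human cancer cell lines in 384-well plates, medium with 10% serum, drug for 72 h over a 256-fold dose range (nine 2-fold or five 4-fold steps up to the top dose). Adherent lines were fixed and stained with the nucleic acid dye Syto60, suspension lines read with resazurin; signal relative to control wells, capped at 0 and 100%. One two-parameter sigmoid per drug and line, fitted in a mixed model over all curves with the slope shared within a line.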

[2] = compound: O=C(Nc1cccc(Nc2ncc(Br)c(NCCc3cnc[nH]3)n2)c1)N1CCCC1 [BX-912]; settings: top dose 10.24 µM; top dose inferred
Method: as §1

[3] = compound: CCCC(=O)OCc1ccc(OC(=O)/C=C(C)/C=C/C=C(C)/C=C/C2=C(C)CCCC2(C)C)cc1 [VNLG/124]; settings: top dose 5.12 µM; top dose inferred
Method: as §1

[4] = compound: O=C(Nc1ccc(OC(F)(F)F)cc1)c1sccc1NCc1ccnc2ccccc12 [OSI-930]; settings: top dose 10.24 µM
Method: as §1

[5] = compound: Cc1ccc(NC(=O)c2ccc(CN3CCN(C)CC3)cc2)cc1Nc1nc(-c2cccnc2)cs1 [Masitinib]; settings: top dose 20 µM
Method: as §1

[6] = compound: Cc1c(N)nc([C@H](CC(N)=O)NC[C@H](N)C(N)=O)nc1C(=O)N[C@H](C(=O)N[C@H](C)[C@@H](O)[C@H](C)C(=O)N[C@H](C(=O)NCCc1nc(-c2nc(C(=O)NCCC[S+](C)C)cs2)cs1)[C@@H](C)O)[C@@H](OC1OC(CO)C(O)C(O)C1OC1OC(CO)C(O)C(OC(N)=O)C1O)c1cnc[nH]1 [Bleomycin]
Method: as §1

[7] = compound: O=S(=O)(O)c1ccc2cc(N=Nc3cc(S(=O)(=O)O)c4cccnc4c3O)ccc2c1 [NSC-87877]; settings: top dose 16 µM; top dose inferred
Method: as §1

[8] = compound: CN(NC(=O)CC(=O)NN(C)C(=S)c1ccccc1)C(=S)c1ccccc1 [Elesclomol]; settings: top dose 0.2 µM; top dose inferred
Method: as §1

[9] = top dose 50 µM, screen: GDSC drug entry 1378, top dose inferred
[10] = top dose 64 µM, screen: GDSC drug entry 190

HCC70 (breast, adherent)
AUC [1]: 0.497 | IC50 [1]: 0.0627 µM | AUC [2]: 0.838 | IC50 [2]: 6.77 µM | AUC [3]: 0.988 | IC50 [3]: > 5.12 µM | AUC [4]: 0.984 | IC50 [4]: > 10.2 µM | AUC [5]: 0.893 | IC50 [5]: > 20 µM | AUC [6, 9]: 0.891 | IC50 [6, 9]: > 50 µM | AUC [6, 10]: 0.87 | IC50 [6, 10]: 57.6 µM | AUC [7]: 0.988 | IC50 [7]: > 16 µM | AUC [8]: 0.842 | IC50 [8]: 0.137 µM

SUP-B15 (lymphoblastic leukaemia, suspension)
AUC [1]: 0.17 | IC50 [1]: 0.00676 µM | AUC [2]: 0.401 | IC50 [2]: 0.347 µM | AUC [3]: 0.971 | IC50 [3]: > 5.12 µM | AUC [4]: 0.888 | IC50 [4]: > 10.2 µM | AUC [5]: 0.466 | IC50 [5]: 1.01 µM | AUC [6, 10]: 0.025 | IC50 [6, 10]: < 0.25 µM | AUC [7]: 0.985 | IC50 [7]: > 16 µM | AUC [8]: 0.927 | IC50 [8]: > 0.2 µM

HCC1500 (breast, adherent)
AUC [1]: 0.439 | IC50 [1]: 0.0433 µM | AUC [2]: 0.987 | IC50 [2]: > 10.2 µM | AUC [3]: 0.93 | IC50 [3]: > 5.12 µM | AUC [4]: 0.962 | IC50 [4]: > 10.2 µM | AUC [5]: 0.912 | IC50 [5]: > 20 µM | AUC [6, 9]: 0.935 | IC50 [6, 9]: > 50 µM | AUC [6, 10]: 0.213 | IC50 [6, 10]: 0.553 µM | AUC [7]: 0.988 | IC50 [7]: > 16 µM | AUC [8]: 0.927 | IC50 [8]: > 0.2 µM

MDA-MB-436 (breast, adherent)
AUC [1]: 0.757 | IC50 [1]: 0.438 µM | AUC [2]: 0.982 | IC50 [2]: > 10.2 µM | AUC [3]: 0.981 | IC50 [3]: > 5.12 µM | AUC [4]: 0.947 | IC50 [4]: > 10.2 µM | AUC [5]: 0.971 | IC50 [5]: > 20 µM | AUC [6, 9]: 0.645 | IC50 [6, 9]: 8.8 µM | AUC [6, 10]: 0.756 | IC50 [6, 10]: 27.1 µM | AUC [7]: 0.984 | IC50 [7]: > 16 µM | AUC [8]: 0.482 | IC50 [8]: 0.0111 µM

RCC10RGB (kidney, adherent)
AUC [1]: 0.498 | IC50 [1]: 0.0628 µM | AUC [2]: 0.972 | IC50 [2]: > 10.2 µM | AUC [3]: 0.954 | IC50 [3]: > 5.12 µM | AUC [4]: 0.965 | IC50 [4]: > 10.2 µM | AUC [5]: 0.877 | IC50 [5]: > 20 µM | AUC [6, 9]: 0.768 | IC50 [6, 9]: 42.1 µM | AUC [6, 10]: 0.767 | IC50 [6, 10]: 53.1 µM | AUC [7]: 0.96 | IC50 [7]: > 16 µM | AUC [8]: 0.968 | IC50 [8]: > 0.2 µM

JSC-1 (B-cell lymphoma, suspension)
AUC [1]: 0.22 | IC50 [1]: 0.00983 µM | AUC [2]: 0.621 | IC50 [2]: 1.37 µM | AUC [3]: 0.954 | IC50 [3]: > 5.12 µM | AUC [4]: 0.922 | IC50 [4]: > 10.2 µM | AUC [5]: 0.664 | IC50 [5]: 3.54 µM | AUC [6, 9]: 0.862 | IC50 [6, 9]: 41.9 µM | AUC [6, 10]: 0.489 | IC50 [6, 10]: 3.74 µM | AUC [7]: 0.963 | IC50 [7]: > 16 µM | AUC [8]: 0.604 | IC50 [8]: 0.024 µM

T47D (breast, adherent)
AUC [1]: 0.394 | IC50 [1]: 0.028 µM | AUC [2]: 0.927 | IC50 [2]: > 10.2 µM | AUC [3]: 0.977 | IC50 [3]: > 5.12 µM | AUC [4]: 0.948 | IC50 [4]: > 10.2 µM | AUC [5]: 0.846 | IC50 [5]: > 20 µM | AUC [6, 9]: 0.866 | IC50 [6, 9]: > 50 µM | AUC [6, 10]: 0.876 | IC50 [6, 10]: > 64 µM | AUC [7]: 0.971 | IC50 [7]: > 16 µM | AUC [8]: 0.537

DOHH-2 (B-cell lymphoma, suspension)
AUC [1]: 0.365 | IC50 [1]: 0.0273 µM | AUC [6, 10]: 0.568 | IC50 [6, 10]: 6.12 µM | AUC [7]: 0.984 | IC50 [7]: > 16 µM | AUC [8]: 0.858 | IC50 [8]: 0.159 µM

MDA-MB-231 (breast, adherent)
AUC [1]: 0.518 | IC50 [1]: 0.0721 µM | AUC [3]: 0.968 | IC50 [3]: > 5.12 µM | AUC [5]: 0.916 | IC50 [5]: > 20 µM | AUC [6, 9]: 0.816 | IC50 [6, 9]: 30 µM | AUC [6, 10]: 0.195 | IC50 [6, 10]: 0.461 µM | AUC [7]: 0.985 | IC50 [7]: > 16 µM | AUC [8]: 0.575 | IC50 [8]: 0.0203 µM

PA-1 (ovary, adherent)
AUC [1]: 0.291 | IC50 [1]: 0.0192 µM | AUC [2]: 0.539 | IC50 [2]: 0.796 µM | AUC [3]: 0.993 | IC50 [3]: > 5.12 µM | AUC [4]: 0.831 | IC50 [4]: 4.63 µM | AUC [5]: 0.897 | IC50 [5]: 15.3 µM | AUC [6, 10]: 0.385 | IC50 [6, 10]: 2.08 µM | AUC [7]: 0.992 | IC50 [7]: > 16 µM | AUC [8]: 0.53 | IC50 [8]: 0.0148 µM

U-118-MG (glioma, adherent)
AUC [1]: 0.639 | IC50 [1]: 0.165 µM | AUC [2]: 0.983 | IC50 [2]: > 10.2 µM | AUC [3]: 0.981 | IC50 [3]: > 5.12 µM | AUC [4]: 0.952 | IC50 [4]: > 10.2 µM | AUC [5]: 0.937 | IC50 [5]: > 20 µM | AUC [6, 9]: 0.584 | IC50 [6, 9]: 5.51 µM | AUC [6, 10]: 0.808 | IC50 [6, 10]: 39.6 µM | AUC [7]: 0.986 | IC50 [7]: > 16 µM | AUC [8]: 0.949 | IC50 [8]: > 0.2 µM

201T (lung adenocarcinoma, adherent)
AUC [1]: 0.387 | IC50 [1]: 0.0288 µM | AUC [2]: 0.876 | IC50 [2]: > 10.2 µM | AUC [3]: 0.977 | IC50 [3]: > 5.12 µM | AUC [4]: 0.976 | IC50 [4]: > 10.2 µM | AUC [5]: 0.923 | IC50 [5]: > 20 µM | AUC [6, 10]: 0.046 | IC50 [6, 10]: < 0.25 µM | AUC [7]: 0.958 | IC50 [7]: > 16 µM | AUC [8]: 0.648 | IC50 [8]: 0.0359 µM

NCI-H510A (small cell lung carcinoma, semi-adherent)
AUC [1]: 0.35 | IC50 [1]: 0.0255 µM | AUC [2]: 0.989 | IC50 [2]: > 10.2 µM | AUC [3]: 0.982 | IC50 [3]: > 5.12 µM | AUC [4]: 0.968 | IC50 [4]: > 10.2 µM | AUC [5]: 0.984 | IC50 [5]: > 20 µM | AUC [6, 10]: 0.327 | IC50 [6, 10]: 1.38 µM | AUC [7]: 0.987 | IC50 [7]: > 16 µM | AUC [8]: 0.798 | IC50 [8]: 0.0863 µM

SW1990 (pancreas, adherent)
AUC [1]: 0.586 | IC50 [1]: 0.115 µM | AUC [2]: 0.979 | IC50 [2]: > 10.2 µM | AUC [3]: 0.983 | IC50 [3]: > 5.12 µM | AUC [4]: 0.973 | IC50 [4]: > 10.2 µM | AUC [5]: 0.977 | IC50 [5]: > 20 µM | AUC [6, 9]: 0.889 | IC50 [6, 9]: > 50 µM | AUC [6, 10]: 0.49 | IC50 [6, 10]: 3.74 µM | AUC [7]: 0.972 | IC50 [7]: > 16 µM | AUC [8]: 0.359 | IC50 [8]: 0.00475 µM

DU-4475 (breast, suspension)
AUC [1]: 0.264 | IC50 [1]: 0.0159 µM | AUC [2]: 0.8 | IC50 [2]: 3.93 µM | AUC [3]: 0.992 | IC50 [3]: > 5.12 µM | AUC [4]: 0.968 | IC50 [4]: > 10.2 µM | AUC [5]: 0.892 | IC50 [5]: 15.9 µM | AUC [6, 9]: 0.771 | IC50 [6, 9]: 15.8 µM | AUC [6, 10]: 0.326 | IC50 [6, 10]: 1.45 µM | AUC [7]: 0.978 | IC50 [7]: > 16 µM | AUC [8]: 0.847 | IC50 [8]: 0.109 µM

NCI-H2052 (mesothelioma, adherent)
AUC [1]: 0.549 | IC50 [1]: 0.0904 µM | AUC [2]: 0.944 | IC50 [2]: > 10.2 µM | AUC [3]: 0.983 | IC50 [3]: > 5.12 µM | AUC [4]: 0.983 | IC50 [4]: > 10.2 µM | AUC [5]: 0.915 | IC50 [5]: > 20 µM | AUC [6, 10]: 0.368 | IC50 [6, 10]: 1.55 µM | AUC [7]: 0.971 | IC50 [7]: > 16 µM | AUC [8]: 0.717 | IC50 [8]: 0.0622 µM
